Laboratory results: the supplement of paper PMC10126150
Values marked as one replicate rest on one cluster of the flow cell; about a third of the high ones do not repeat.

Test system: ATP
Experiment: switch fluorescence ratio, 500 uM ATP over buffer (Cy3 cluster intensity, sum of 5 cycles each) (fold (ratio)); higher = stronger signal-on switching upon ATP binding; sequences stand for … in TCGTCGGCAGCGTCAGATGTGTATAAGAGACAGTTTTTTTTTTTTTTTTTTTTTTTTT…TC
Details: aptamer strand: ATP DNA aptamer (quencher-CACCTGGGGGAGTATTGCGGAGGAAGG + anchor), 100 nM annealed; ATP concentration: 500 uM; one replicate
Procedure, shortened: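 Cy3-labelled switching-strand clusters on a modified Illumina MiSeq flow-cell were annealed to 100 nM quencher-labelled ATP aptamer, imaged in selection buffer, then imaged after 15 min with 500 uM ATP at 22 °C. Five buffer/ATP cycles ran, with NaOH stripping and re-annealing between them. The fluorescence ratio is summed target-cycle over summed buffer-cycle Cy3 intensity per cluster, averaged per switch-domain sequence. Clusters outside 100-1000 RFU were excluded.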
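Further: ATP exposure 15 min at 22 °C before imaging.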

Row | Sequence | switch fluorescence ratio
1 | GGGTGTGAGC | 1.03
2 | GGGTGTGCAG | 1.04
3 | GGGTGTTGAG | 0.991
4 | GGGTTACCTT | 1.16
5 | GGGTTAGTCC | 0.938
6 | GGGTTCAATG | 1.01
7 | GGGTTCATAC | 0.968
8 | GGGTTCGACC | 1.01
9 | GGGTTCGCCT | 1.02
10 | GGGTTCGGAT | 1.02
11 | GGGTTCGTCG | 0.978
12 | GGGTTCTTAG | 0.975
13 | GGGTTGAC | 0.989
14 | GGGTTGACC | 0.997
15 | GGGTTTCTTA | 0.979
16 | GGGTTTGGAG | 0.992
17 | GGGTTTTCTA | 0.992
18 | GGGTTTTTT | 0.947
19 | GGTAAAAGGC | 0.984
20 | GGTAAACACT | 1.04
21 | GGTAAATGGT | 0.938
22 | GGTAACAGGC | 1.05
23 | GGTAACCCCG | 1.08
24 | GGTAAGGACC | 1
25 | GGTAAGGGGT | 1.21
26 | GGTAATAGTG | 1.01

Row | Sequence | switch fluorescence ratio
27 | GGTAATATCG | 0.994
28 | GGTAATCTGC | 0.968
29 | GGTAATTTGC | 0.981
30 | GGTACAAGGA | 1.01
31 | GGTACACGCC | 1.06
32 | GGTACATACT | 1.25
33 | GGTACGCACG | 1.31
34 | GGTACTTATG | 0.976
35 | GGTAGAAACG | 0.968
36 | GGTAGACTCG | 1.01
37 | GGTAGCGGTC | 1.06
38 | GGTAGGGGAA | 0.981
39 | GGTAGGTGTG | 0.98
40 | GGTAGTACAT | 1
41 | GGTAGTCGGC | 0.996
42 | GGTAGTTGAA | 0.932
43 | GGTATAGTTC | 0.995
44 | GGTATCCAGG | 1.2
45 | GGTATGACCT | 1.07
46 | GGTATTCGTA | 0.958
47 | GGTATTTCTT | 0.974
48 | GGTCACATG | 1.01
49 | GGTCACCAGC | 0.999
50 | GGTCACTCTG | 1.02
51 | GGTCATAAAA | 1.02
52 | GGTCATCT | 1.08

Row | Sequence | switch fluorescence ratio
53 | GGTCATGTCG | 1.03
54 | GGTCCACAGC | 1.03
55 | GGTCCACTTT | 1.01
56 | GGTCCATTGA | 1.03
57 | GGTCCCACTA | 1.01
58 | GGTCCCTGGC | 1.06
59 | GGTCCGAGCA | 1.41
60 | GGTCCGGTAA | 1.05
61 | GGTCCGTGTG | 1.01
62 | GGTCCTGGAG | 1.01
63 | GGTCCTTAGA | 0.98
64 | GGTCGAATGC | 1.01
65 | GGTCGACATT | 1.02
66 | GGTCGACTTC | 1.02
67 | GGTCGAGGAT | 1
68 | GGTCGATCCT | 0.985
69 | GGTCGGATTG | 0.973
70 | GGTCGTACTT | 0.972
71 | GGTCTAGGCT | 0.969
72 | GGTCTCCAGG | 1.29
73 | GGTCTCTCGC | 1.01
74 | GGTCTGGGG | 1.02
75 | GGTCTTGATT | 1.02
76 | GGTCTTGGTG | 0.984
77 | GGTGAAATTT | 0.997
78 | GGTGAACGTA | 1.02

Row | Sequence | switch fluorescence ratio
79 | GGTGAAGCTA | 0.994
80 | GGTGAGCAG | 0.986
81 | GGTGAGCCAT | 0.967
82 | GGTGATAGCG | 0.915
83 | GGTGATATAT | 0.961
84 | GGTGATCAAG | 1.04
85 | GGTGATCGG | 0.995
86 | GGTGCAACTA | 0.991
87 | GGTGCATCT | 1.02
88 | GGTGCCCGAG | 1.01
89 | GGTGCCTTGG | 1.03
90 | GGTGCGAAGG | 1.01
91 | GGTGCGATGG | 1.07
92 | GGTGCGTCAG | 0.976
93 | GGTGCTCGGG | 0.987
94 | GGTGCTCTGG | 0.995
95 | GGTGCTGGTA | 1.07
96 | GGTGCTGGTC | 0.9
97 | GGTGCTGTG | 0.999
98 | GGTGCTTAAG | 0.996
99 | GGTGGACGAC | 0.985
100 | GGTGGACTAC | 1.02
101 | GGTGGATATA | 1.03
102 | GGTGGATGCA | 0.978
103 | GGTGGATGTG | 0.991
104 | GGTGGCGAGT | 1.01

Row | Sequence | switch fluorescence ratio
105 | GGTGGCTGCA | 0.97
106 | GGTGGGACCG | 0.993
107 | GGTGGGACGT | 1.06
108 | GGTGGTCGG | 0.95
109 | GGTGGTGTTG | 0.994
110 | GGTGTAAAGG | 1
111 | GGTGTAACGG | 0.949
112 | GGTGTACGCA | 1.05
113 | GGTGTACGCT | 1.02
114 | GGTGTACTGG | 1.01
115 | GGTGTAGCAC | 1.03
116 | GGTGTAGCTC | 1
117 | GGTGTATGTG | 0.996
118 | GGTGTCCCC | 1.09
119 | GGTGTCTATA | 0.996
120 | GGTGTGCA | 0.954
121 | GGTGTTATCT | 0.975
122 | GGTGTTCTTG | 1.01
123 | GGTGTTTCC | 0.97
124 | GGTTAAAAGT | 1.02
125 | GGTTAAGAGC | 0.972
126 | GGTTACGCCC | 1.05
127 | GGTTAGATTT | 0.974
128 | GGTTAGGGAA | 0.968
129 | GGTTATATGC | 0.967
130 | GGTTATCGGG | 0.986

Row | Sequence | switch fluorescence ratio
131 | GGTTATTCAG | 0.978
132 | GGTTCATTCA | 0.999
133 | GGTTCCAATG | 1.01
134 | GGTTCCAGGG | 1.07
135 | GGTTCCGAGT | 1.1
136 | GGTTCGAAAA | 0.949
137 | GGTTCGAGGG | 0.998
138 | GGTTCGGATG | 0.973
139 | GGTTCGGCGT | 1.1
140 | GGTTCGGCTC | 1.04
141 | GGTTGAACGC | 0.991
142 | GGTTGAAGCT | 0.974
143 | GGTTGAGGGT | 0.947
144 | GGTTGCTCGA | 0.982
145 | GGTTGGCGCG | 0.991
146 | GGTTGTCCGC | 1.03
147 | GGTTGTCGT | 1.09
148 | GGTTGTGAAA | 1.05
149 | GGTTTAGTCC | 1.02
150 | GGTTTCAGAA | 0.972
151 | GGTTTCAGCG | 1.01
152 | GGTTTCTGAC | 1.02
153 | GGTTTGGAAG | 0.958
154 | GGTTTGGTAC | 0.993
155 | GGTTTTACAT | 1
156 | GTAAAACGTC | 0.986

Row | Sequence | switch fluorescence ratio
157 | GTAAAAGCGT | 0.974
158 | GTAAACCCCC | 1.3
159 | GTAAAGCTTC | 0.972
160 | GTAAATAGAA | 1.01
161 | GTAAATAGCA | 0.986
162 | GTAAATCCGG | 0.973
163 | GTAACAGGTT | 1.01
164 | GTAACGCCTC | 0.999
165 | GTAACTCGCA | 1.17
166 | GTAACTGATT | 1.02
167 | GTAAGACATC | 1.01
168 | GTAAGACCAG | 0.931
169 | GTAAGGGTTT | 0.993
170 | GTAAGTACCG | 1.11
171 | GTAAGTCATG | 1.02
172 | GTAAGTCGTT | 0.985
173 | GTAAGTGGAC | 0.974
174 | GTAAGTTAAA | 1.01
175 | GTAATACTGG | 1.22
176 | GTAATAGCGA | 0.98
177 | GTAATCATGA | 0.985
178 | GTAATGCTAA | 0.981
179 | GTAATTAGA | 0.992
180 | GTAATTAGTA | 1
181 | GTAATTCAAT | 1.02
182 | GTAATTCACG | 1.03

Row | Sequence | switch fluorescence ratio
183 | GTAATTCATT | 0.946
184 | GTAATTGTTC | 0.939
185 | GTACAGAATG | 1
186 | GTACCCGTTG | 1.02
187 | GTACGACTTA | 0.999
188 | GTACGAGGGT | 0.997
189 | GTACGCGGTA | 0.98
190 | GTACGGAAGG | 1.11
191 | GTACGGAGCT | 1.37
192 | GTACGGGGCG | 1.03
193 | GTACTACGTT | 0.988
194 | GTACTAGGTG | 1.8
195 | GTACTATAGG | 0.975
196 | GTACTCGCGG | 1.08
197 | GTACTCTTTT | 0.97
198 | GTACTGAACT | 1.28
199 | GTACTGGCGT | 1.05
200 | GTACTTTTTA | 1.03
201 | GTAGAAAGA | 0.985
